Measured values taken from the supplement of paper PMC3334620.
In all, about 33,000 sequences were measured (“E-score (-0.5 to 0.5)”: median about -0.01, highest 2% from about 0.26 on). The list shows a part of the results.

Biological target: Ste12 (UniProt P13574)
Test: PBM E-score (8-mer binding enrichment) (E-score (-0.5 to 0.5)); higher = stronger / more preferred TF binding; most listed sequences are background and not binding sites
Conditions: protein concentration: 200 nM; construct: GST-DNA-binding domain
Method: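 Universal 'all 10-mer' protein binding microarrays (Agilent AMADID 015681) probed with GST-tagged S. cerevisiae TFs (full-length or DBD) made by in vitro transcription/translation (PURExpress), about 100-200 nM. Bound TF was detected with fluorescent anti-GST. Each ungapped 8-mer (which stands for itself and its reverse complement) is scored by the PBM enrichment score (E-score), a modified Wilcoxon-Mann-Whitney statistic from -0.5 to +0.5, computed with the Universal PBM Analysis Suite. Scale: above 0.35 generally sequence-specific binding.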

Row | Sequence | PBM E-score
1 | TAAAACAA | 0.261
2 | GATTAATA | 0.246
3 | AAGATATT | 0.132
4 | GTATGTTA | 0.166
5 | CGACTCGC | -0.124
6 | GATTAGTA | 0.115
7 | ACCTCCGG | 0.119
8 | AGAATCCA | -0.00207
9 | GAGAATTA | 0.128
10 | GCGTCAGC | -0.17
11 | GCTTGCCC | -0.0989
12 | CGCTATAC | -0.0194
13 | AGGCTACC | -0.246
14 | ATGTTTTG | 0.335
15 | CAGTACGG | 0.0442
16 | GATTGGGC | -0.00183
17 | GGAAAACA | 0.177
18 | CTCTATCA | 0.0399
19 | CAAACGTA | -0.052
20 | ACTGACCT | -0.095
21 | GTACCGTA | -0.00396
22 | CGATAAAC | -0.0561

Row | Sequence | PBM E-score
23 | GTCTCAGA | 0.214
24 | CACGTTCA | -0.104
25 | CCCGGTTC | -0.132
26 | AAACCGCA | -0.0779
27 | GACCCTGA | -0.128
28 | CATCTATC | 0.0653
29 | TCGGGACA | 0.00859
30 | AGTAGGTG | 0.182
31 | TGCAGAAA | 0.169
32 | AGGACAAA | 0.195
33 | GCGCGATA | 0.132
34 | CGGAACGA | 0.0799
35 | GTCTAACA | -0.0889
36 | ATTGAGTC | -0.0267
37 | GTCTACGA | -0.261
38 | AGTTGTCC | 0.0255
39 | AAATTGCA | 0.103
40 | GACCGCTC | -0.255
41 | CTCTCCAG | -0.312
42 | ACGGTGTC | -0.0965
43 | CGATCTGA | 0.012
44 | ACAGCGGC | 0.108

Row | Sequence | PBM E-score
45 | ACATATGT | -0.045
46 | AGCTCCCC | -0.0998
47 | ATCTTCAC | 0.145
48 | ACGCTTCA | -0.0125
49 | GATTCAGA | 0.142
50 | CCCTACAG | -0.279
51 | AAACCCGT | 0.0403
52 | CCGGCTTA | 0.0604
53 | GAGTCTAC | -0.18
54 | CAGGGGGA | -0.17
55 | ATGTTGAC | 0.114
56 | CTATGCTA | -0.0922
57 | ATATCGAT | 0.0627
58 | AAAGCTTC | 0.0401
59 | GCTTCCCA | -0.132
60 | CTATCAAC | 0.0593
61 | TTAATGAA | 0.206
62 | GGACATCC | -0.16
63 | ACAGCAGA | -0.145
64 | CCAAAGGG | -0.0366
65 | CCTTGCGC | 0.00608
66 | CCTACACG | -0.101

Row | Sequence | PBM E-score
67 | AAGTTAAC | -0.0624
68 | CGTATGTC | -0.159
69 | ACTATCTC | -0.00928
70 | CCAATCCC | 0.104
71 | CAACTCTC | -0.0865
72 | ATAAATTA | 0.255
73 | GTTGACGA | -0.186
74 | CACCATAC | -0.00648
75 | ACCAGTCA | -0.0556
76 | CAAATTTG | 0.103
77 | TACACCCA | 0.0751
78 | GGCGTTTA | 0.168
79 | GTTTACTA | 0.116
80 | CAGTGCAA | -0.0547
81 | GTTTCTAA | 0.249
82 | CGTTGGCC | -0.128
83 | ACCCTGTA | -0.00248
84 | AAGGCTAG | -0.0508
85 | CAGAGGGG | -0.198
86 | CTCTATTA | 0.0578
87 | ACTGTACT | -0.145
88 | ATAATAGG | -0.0375

Row | Sequence | PBM E-score
89 | ATCATGTC | 0.0261
90 | GTTACACA | 0.25
91 | AGGGTTCA | -0.131
92 | CGTTACAG | 0.146
93 | CCAACAAG | -0.021
94 | AGTGGTCC | -0.272
95 | CCTGGTAC | -0.0643
96 | GTAATGTA | 0.107
97 | CTATTTTA | 0.232
98 | ATCGTTAA | 0.112
99 | ACGAAGAT | 0.0462
100 | ACACTGTC | -0.0374
101 | CGCATAGC | -0.255
102 | AAGCACTC | -0.0994
103 | GCGGAGCA | 0.0183
104 | AATTTCAC | 0.11
105 | ACTCGTCT | 0.0783
106 | ACATCTTA | -0.0589
107 | GAGTGAGC | -0.0395
108 | GGGAACAA | 0.108
109 | CGAGGGAA | 0.101
110 | CTATTGGC | -0.1
